Some of the results follow.
T1: UNK ZnF1-6 (called full-length) (human, UniProt Q9C0B0 30-357)
T1 sequence: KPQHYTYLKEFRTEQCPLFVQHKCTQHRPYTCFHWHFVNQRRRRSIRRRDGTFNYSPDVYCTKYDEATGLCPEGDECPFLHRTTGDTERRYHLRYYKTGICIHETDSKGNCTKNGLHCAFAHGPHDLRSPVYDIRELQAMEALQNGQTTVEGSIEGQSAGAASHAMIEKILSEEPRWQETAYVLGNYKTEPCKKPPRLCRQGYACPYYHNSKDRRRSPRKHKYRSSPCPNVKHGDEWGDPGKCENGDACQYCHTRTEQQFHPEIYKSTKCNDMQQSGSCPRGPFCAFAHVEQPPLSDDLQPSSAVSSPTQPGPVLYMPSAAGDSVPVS

B1: ENSG00000090470:stop:overlap|stop_codon|ENSG00000090470|stop_codon|NA|stop_codon (ssRNA)
RNA: GGGAGUUCUACAGUCCGACGAUCGAUGGGUCCUUCCCCCGCUCCCCAGCAACGACAUCUGGGCAACUGCUGUUAAGCUGCAUUAGUAAAGAUGCUCCAGGAGUGUGGUCCAGCCAGCGCUCUUUCCAGCUGUAAAUAUUAGCGCAACAGAGGAUUGAGCAUCA
B2: chr1:223774945:223775046:+|3pUTR|ENSG00000162909|msi1|FALSE|unique (ssRNA)
RNA: GGGAGUUCUACAGUCCGACGAUCAAAUACACUUUGUAUCUGGACCUCAAAAUUAUGGGAACAUUUACUUAAACGGAUGAUCAUAGCUGAAAAUAAUGAUACUGUCAAUUUGAGAUAGCAGAAGUUUCACACAUCAAAGUAAAACAACAGAGGAUUGAGCAUCA
B3: chr13:100668578:100668794:-|CDS|ENSG00000125247|control|control|control (ssRNA)
RNA: GGGAGUUCUACAGUCCGACGAUCCACUGAUUUGGAUCACAUUCUUCCAUCUUCUGUUCUUCCUCCAUUCUGGGCUAAGUUAGUAGUGGGAUCGGUUGCCAUUGUGUGUUUUGCACGCAGCUAUGAUGGAGACUUUGUCUUUGACAACAGAGGAUUGAGCAUCA
B4: ENSG00000107863:be:win_3751|CDS|ENSG00000107863|bound_else_gene|NA|bound_elsewhere_windowed (ssRNA)
RNA: GGGAGUUCUACAGUCCGACGAUCGAUCCUCUAGAUCGUCUGAAAACAUUAAAAAGACUAAUUCACGAUUUGCCUGAACAUCAUUAUGAAACACUUAAGUUCCUUUCAGCUCAUCUGAAGACAGUGGCAGAAAAUUCAGAAAAACAACAGAGGAUUGAGCAUCA
B5: ENSG00000008256:stop:overlap|stop_codon|ENSG00000008256|stop_codon|NA|stop_codon (ssRNA)
RNA: GGGAGUUCUACAGUCCGACGAUCGCAGAGAUCCCUUCUAUGACAUGUUGGCAACGAGGAAACGAAGGAUUGCCAAUAAAAAAUAGCUUUCCUGGCUAAAAGACCCAGGUAAAAGACCCAACCCCAGCAGAAAGACACCGCGGGCAACAGAGGAUUGAGCAUCA
B6: chr1:23854467:23854568:-|CDS|ENSG00000179163|unk|FALSE|unique (ssRNA)
RNA: GGGAGUUCUACAGUCCGACGAUCAAGUCAAGUGGUUUUACUCCUCAUGACCAAAUAUUCUUUCCCUCCUUAGGAUGAGGUGGUAGUAAAUGACCGAUGGGGUCAGAACUGUUCCUGUCACCAUGGAGGAUACUAUAACUGUGACAACAGAGGAUUGAGCAUCA

Each binder was assayed against T1, UNK ZnF1-6 (called full-length) (assay: nsRBNS (natural sequence RNA bind-n-seq); RBNS binding buffer (assumed for nsRBNS): 25 mM Tris pH 7.5, 150 mM KCl, 3 mM MgCl2, 0.01% Triton X-100, 500 ug/ml BSA, 20 U/ml SUPERase-In, 4 C; UNK is unkempt and MSI1 is Musashi-1; names of the RNAs are library labels; protein concentration not given here; high values mean tight binding).

**Q.** How did the binding signal turn out when B1 was run?
**A.** 0.737 enrichment R

**Q.** How did the binding signal turn out when B2 was run?
**A.** 0.322 enrichment R

**Q.** For B3, which binding signal is on record?
**A.** 0.56 enrichment R

**Q.** For B4, which binding signal is on record?
**A.** 0.346 enrichment R

**Q.** With B5 as the binder, how does the binding signal read?
**A.** 0.599 enrichment R

**Q.** B6 was tested. Which binding signal did it give?
**A.** 0.502 enrichment R
